The experiment relates to P388 leukemia ip, CD2F1 mice, survival T/C. Description: NCI In Vivo Anticancer Drug Screen. Data for tumor model P388 Leukemia (intraperitoneal) in CD2F1 (CDF1) mice. Conditions: endpoint: median survival time, higher = longer survival.
Setting [1] is: dose: 100.0 mg/kg/injection, schedule: Q01DX009 (ip), vehicle: saline with Tween-80.

SMILES strings stand for the structures. Inconclusive results and toxic doses are left out. For part of its entries the source gives two or more results. They are shown here; other results are not. There may be further records. Values given together are repeated measurements across runs, samples, wells, individuals or studies.

On to `CCSC(=O)N1c2ccc(OC)cc2C=CC1C#N` (stereo unspecified), for which the T/C under setting [1] was 109 % of control and 171 % of control.

Regarding `CC1(C)N=C(N)N=C(N)N1c1ccc(CCC(=O)Nc2ccc(S(=O)(=O)F)cc2)cc1`, the T/C under setting [1] was 93 % of control and 168 % of control.

In the case of `CC1OC(OC2CC(O)(C(=O)CO)Cc3c(O)c4c(c(O)c32)C(=O)c2ccccc2C4=O)CC(N)C1O` (stereo unspecified), where the note is “dose: 0.13 mg/kg/injection, schedule: Q04DX003 (ip), vehicle: water”, the T/C is 117 % of control and 166 % of control.

Turning to `CCCCSc1ccc(NN=O)nc1`, the T/C (dose: 3.12 mg/kg/injection, schedule: Q01DX009 (ip), vehicle: water) was 118 % of control and 153 % of control.

Turning to `C[C@@H]1CN1C1=CC(=O)C(N2C[C@H]2C)=CC1=O`, the T/C (dose: 10.0 mg/kg/injection, schedule: Q01DX009 (ip), vehicle: gum acacia) is 111 % of control and 166 % of control.

Take `ClC(Cl)(Cl)C1=NCc2nnn(Cc3ccccc3)c2N1`: the T/C (dose: 50.0 mg/kg/injection, schedule: Q01DX009 (ip), vehicle: saline with Tween-80) is 107 % of control and 189 % of control.

The record behind these values is PubChem BioAssay AID330 (DTP/NCI, 2004).
